Assay results reported in publication PMC11995724, “Antibiotic target discovery by integrated phenotypic and activity-based profiling of electrophilic fragments” (Cell chemical biology, 2025).
In all, about 3,200 compounds went through this assay and about 110 (3.4%) showed an effect of 50% or more. The list shows a part of the results.

Test system: T1, V. cholerae SAD30
T1 construct: SAD30
Set-up: species or system S. aureus MSSA476 (TSB) or V. cholerae SAD30 (LB); 384-well bacterial growth screen at 25 uM, OD600 relative to DMSO control
Conditions: relative growth, OD600, LB; 25 µM; inhibitor

Compound	% of control remaining [%]
O=C(CCl)N(Cc1ccoc1)C1CCCCC1 [5-B15, 2-chloro-N-cyclohexyl-N-[(furan-3-yl)methyl]acetamide]	78.5121
CC1CSc2ccccc2N(C(=O)CCl)C1 (stereo not shown) [5-H07, 2-chloro-1-(3-methyl-2,3,4,5-tetrahydro-1,5-benzothiazepin-5-yl)ethan-1-one]	98.8547
N#CC(=Cc1cccc(Cl)c1Cl)C(=O)Nc1ccc(F)cc1 [8-P22, 2-cyano-3-(2,3-dichlorophenyl)-N-(4-fluorophenyl)prop-2-enamide]	87.8994
CC(Cl)C(=O)NCc1csc2ccccc12 (stereo not shown) [7-C11, N-[(1-benzothiophen-3-yl)methyl]-2-chloropropanamide]	69.5192
C=CC(=O)N(C)Cc1nc2c(n1C)CCCC2 [2-K22, N-methyl-N-[(1-methyl-4,5,6,7-tetrahydro-1H-1,3-benzodiazol-2-yl)methyl]prop-2-enamide]	107.488
CC(Cl)C(=O)N1CCNC(=O)C1c1c(F)cccc1Cl (stereo not shown) [6-D07, 3-(2-chloro-6-fluorophenyl)-4-(2-chloropropanoyl)piperazin-2-one]	93.4307
C=CC(=O)Nc1ccnn1C1CCCC1 [2-K13, N-(1-cyclopentyl-1H-pyrazol-5-yl)prop-2-enamide]	76.1459
CC(Cl)C(=O)NC1CCCn2nccc21 (stereo not shown) [6-J16, 2-chloro-N-{4H,5H,6H,7H-pyrazolo[1,5-a]pyridin-4-yl}propanamide]	89.0321
C=CCNC(=O)C(C#N)=Cc1ccc(C(=O)O)cc1 [8-J04, 4-{2-cyano-2-[(prop-2-en-1-yl)carbamoyl]eth-1-en-1-yl}benzoic acid]	76.3426
O=C(CCl)N1CCn2c(cc3ccccc32)C1 [5-A20, 2-chloro-1-{1H,2H,3H,4H-pyrazino[1,2-a]indol-2-yl}ethan-1-one]	106.756
CC(NC(=O)C(C#N)=Cc1cc(O)ccc1[N+](=O)[O-])c1ccccc1 (stereo not shown) [9-D15, 2-cyano-3-(5-hydroxy-2-nitrophenyl)-N-(1-phenylethyl)prop-2-enamide]	81.1013
Cc1ccc(C2=NN(C(=O)CCl)C(c3cccs3)C2)o1 (stereo not shown) [5-I17, 2-chloro-1-[3-(5-methylfuran-2-yl)-5-(thiophen-2-yl)-4,5-dihydro-1H-pyrazol-1-yl]ethan-1-one]	100.704
N#CC(=Cc1ccccc1Cl)C(=O)Nc1ccc2c(c1)OCCO2 [8-F03, 3-(2-chlorophenyl)-2-cyano-N-(2,3-dihydro-1,4-benzodioxin-6-yl)prop-2-enamide]	94.4256
Cc1ccccc1NC(=O)C(C#N)=Cc1ccsc1 [8-K15, 2-cyano-N-(2-methylphenyl)-3-(thiophen-3-yl)prop-2-enamide]	70.6322
Cc1ccccc1CN1CCC(NC(=O)CCl)CC1.Cl [6-L08, 2-chloro-N-{1-[(2-methylphenyl)methyl]piperidin-4-yl}acetamide hydrochloride]	89.7905
Cc1cc(C(=O)CCl)c(C)n1CCc1ccccc1 [10-B18, 2-chloro-1-[2,5-dimethyl-1-(2-phenylethyl)-1H-pyrrol-3-yl]ethan-1-one]	95.3828
C=CC(=O)NCc1cccc(-c2nnc[nH]2)c1 [1-I18, N-{[3-(4H-1,2,4-triazol-3-yl)phenyl]methyl}prop-2-enamide]	89.9851
N#CC(=Cc1csc(-c2ccsc2)n1)C(=O)NC1CC1 [9-N18, 2-cyano-N-cyclopropyl-3-[2-(thiophen-3-yl)-1,3-thiazol-4-yl]prop-2-enamide]	88.5792
N#CC(=Cc1ccc(Cl)cc1Cl)C(=O)Nc1ccncc1 [8-M22, 2-cyano-3-(2,4-dichlorophenyl)-N-(pyridin-4-yl)prop-2-enamide]	83.5486
C=CC(=O)N1CCC(C(=O)NCc2cc(=O)n3ccccc3n2)CC1 [3-L12, N-({4-oxo-4H-pyrido[1,2-a]pyrimidin-2-yl}methyl)-1-(prop-2-enoyl)piperidine-4-carboxamide]	91.5604
C=CC(=O)N(Cc1ccc(F)cn1)c1cnn(C2CCCC2)c1C [1-D11, N-(1-cyclopentyl-5-methyl-1H-pyrazol-4-yl)-N-[(5-fluoropyridin-2-yl)methyl]prop-2-enamide]	86.846
O=C(CCl)N[C@H]1CCN(S(=O)(=O)c2ccccc2)C1 [7-P16, N-[(3S)-1-(benzenesulfonyl)pyrrolidin-3-yl]-2-chloroacetamide]	91.0623

Compound	% of control remaining [%]
N#CC(=Cc1cccnc1)C(=O)Nc1ccc(F)cc1 [8-B21, 2-cyano-N-(4-fluorophenyl)-3-(pyridin-3-yl)prop-2-enamide]	82.5969
CC(Cl)C(=O)N(C)Cc1ncnn1CC(F)F (stereo not shown) [7-C10, 2-chloro-N-{[1-(2,2-difluoroethyl)-1H-1,2,4-triazol-5-yl]methyl}-N-methylpropanamide]	77.0527
CC(C)NC(=O)C(C#N)=Cc1cccs1 [8-H15, 2-cyano-N-(propan-2-yl)-3-(thiophen-2-yl)prop-2-enamide]	71.0401
CC(Cl)C(=O)N1CCN(CC(F)(F)C(F)F)CC1 (stereo not shown) [7-J07, 2-chloro-1-[4-(2,2,3,3-tetrafluoropropyl)piperazin-1-yl]propan-1-one]	78.5065
N#CC(=Cc1ccc(C#N)cc1)C(=O)Nc1cccc2ccccc12 [8-O16, 2-cyano-3-(4-cyanophenyl)-N-(naphthalen-1-yl)prop-2-enamide]	69.1366
Cc1nc2n(n1)CCCC2NC(=O)CCl (stereo not shown) [7-F12, 2-chloro-N-{2-methyl-5H,6H,7H,8H-[1,2,4]triazolo[1,5-a]pyridin-8-yl}acetamide]	78.5065
N#CC(=Cc1c[nH]c2ccccc12)C(=O)Nc1ccccn1 [9-B10, 2-cyano-3-(1H-indol-3-yl)-N-(pyridin-2-yl)prop-2-enamide]	78.654
Cc1cc(CN(C(=O)CCl)C2CCCC2)c2ccccc2n1 [7-B20, 2-chloro-N-cyclopentyl-N-[(2-methylquinolin-4-yl)methyl]acetamide]	87.8903
CC(C)c1ccc(CN(C(=O)CCl)C2CC2)cc1 [6-K18, 2-chloro-N-cyclopropyl-N-{[4-(propan-2-yl)phenyl]methyl}acetamide]	82.0552
O=C(CCl)NCCOc1cccc(Cl)c1 [6-G05, 2-chloro-N-[2-(3-chlorophenoxy)ethyl]acetamide]	100.863
CCN(C(=O)CCl)c1cccc2ccccc12 [5-B08, 2-chloro-N-ethyl-N-(naphthalen-1-yl)acetamide]	103.058
C=CC(=O)N1CCOCC2(CC2)C1 [2-M15, 1-{5-oxa-8-azaspiro[2.6]nonan-8-yl}prop-2-en-1-one]	88.1887
CC(Cl)C(=O)Nc1cc2c(cc1Cl)C(=O)c1ccccc1C2=O (stereo not shown) [4-I12, 2-chloro-N-(3-chloro-9,10-dioxo-9,10-dihydroanthracen-2-yl)propanamide]	94.3714
C=CC(=O)N(C)CC(=O)N1CCc2ccc(S(C)(=O)=O)cc2CC1 [2-N08, N-[2-(7-methanesulfonyl-2,3,4,5-tetrahydro-1H-3-benzazepin-3-yl)-2-oxoethyl]-N-methylprop-2-enamide]	88.1887
CCN(CC)S(=O)(=O)c1cc(NC(=O)C(C)Cl)ccc1C (stereo not shown) [4-P09, 2-chloro-N-[3-(diethylsulfamoyl)-4-methylphenyl]propanamide]	107.138
COc1ccc(C=C(C#N)C(=O)Nc2ccccc2OC)cc1 [8-G09, 2-cyano-N-(2-methoxyphenyl)-3-(4-methoxyphenyl)prop-2-enamide]	78.9259
COc1ccc([C@H]2C[C@H](NC(=O)C(C)Cl)C2)cc1F (stereo partly shown) [6-F17, 2-chloro-N-[(1r,3r)-3-(3-fluoro-4-methoxyphenyl)cyclobutyl]propanamide]	82.0552
Cc1cc(C=C(C#N)C(=O)Nc2ccccc2)c(C)n1C1CC1 [8-E14, 2-cyano-3-(1-cyclopropyl-2,5-dimethyl-1H-pyrrol-3-yl)-N-phenylprop-2-enamide]	74.1672
CC1(C)Cc2cc(C=C(C#N)C(=O)Nc3ccccc3F)ccc2O1 [8-G20, 2-cyano-3-(2,2-dimethyl-2,3-dihydro-1-benzofuran-5-yl)-N-(2-fluorophenyl)prop-2-enamide]	73.8953
CN(C(=O)CCl)c1c(N)n(Cc2ccccc2)c(=O)[nH]c1=O [4-E06, N-(6-amino-1-benzyl-2,4-dioxo-1,2,3,4-tetrahydropyrimidin-5-yl)-2-chloro-N-methylacetamide]	101.617
C=CC(=O)N(Cc1cc(F)cc(Cl)c1)C(C)C1CCOCC1 (stereo not shown) [1-F13, N-[(3-chloro-5-fluorophenyl)methyl]-N-[1-(oxan-4-yl)ethyl]prop-2-enamide]	77.429
